Numbering of substitutions follows the chain as printed; changes in the protein carry UniProt numbers. The list shows a part of the results.

T1: RBFOX1 RRM (Homo sapiens, UniProt Q9NWB1 109-208)
T1 sequence: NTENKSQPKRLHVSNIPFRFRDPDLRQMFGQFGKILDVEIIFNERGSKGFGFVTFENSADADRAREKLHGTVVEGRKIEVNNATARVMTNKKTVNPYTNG

B1: GCGGUGC (DNA:RNA)
RNA: GGGAGACCGGAAUUCAGAUUGUCCGCGGUGCUUAAAUCCCGUCGUAGCCACCA
DNA 1: CAATCTGAATTCCGGTCTCCC
DNA 2: TGGTGGCTACGACGGGATT
B2: CCCUAAG (DNA:RNA)
RNA: B1 RNA with G25C, G27C, G28U, U29A, G30A, C31G
DNA 1: CAATCTGAATTCCGGTCTCCC
DNA 2: TGGTGGCTACGACGGGATT
B3: UAAGUGA (DNA:RNA)
RNA: B1 RNA with G25U, C26A, G27A, C31A
DNA 1: CAATCTGAATTCCGGTCTCCC
DNA 2: TGGTGGCTACGACGGGATT
B4: AGGCUUA (DNA:RNA)
RNA: B1 RNA with G25A, C26G, G28C, G30U, C31A
DNA 1: CAATCTGAATTCCGGTCTCCC
DNA 2: TGGTGGCTACGACGGGATT
B5: GUCGGAU (DNA:RNA)
RNA: B1 RNA with C26U, G27C, U29G, G30A, C31U
DNA 1: CAATCTGAATTCCGGTCTCCC
DNA 2: TGGTGGCTACGACGGGATT
B6: UGAAAGG (DNA:RNA)
RNA: B1 RNA with G25U, C26G, G27A, G28A, U29A, C31G
DNA 1: CAATCTGAATTCCGGTCTCCC
DNA 2: TGGTGGCTACGACGGGATT
B7: CUGAGGA (DNA:RNA)
RNA: B1 RNA with G25C, C26U, G28A, U29G, C31A
DNA 1: CAATCTGAATTCCGGTCTCCC
DNA 2: TGGTGGCTACGACGGGATT
B8: GUGAUUA (DNA:RNA)
RNA: B1 RNA with C26U, G28A, G30U, C31A
DNA 1: CAATCTGAATTCCGGTCTCCC
DNA 2: TGGTGGCTACGACGGGATT
B9: AUCGCAA (DNA:RNA)
RNA: B1 RNA with G25A, C26U, G27C, U29C, G30A, C31A
DNA 1: CAATCTGAATTCCGGTCTCCC
DNA 2: TGGTGGCTACGACGGGATT
B10: CGGCUGA (DNA:RNA)
RNA: B1 RNA with G25C, C26G, G28C, C31A
DNA 1: CAATCTGAATTCCGGTCTCCC
DNA 2: TGGTGGCTACGACGGGATT
B11: CGAUGUA (DNA:RNA)
RNA: GGGAGACCGGAAUUCAGAUUGUCCCGAUGUAUUAAAUCCCGUCGUAGCCACCA
DNA 1: CAATCTGAATTCCGGTCTCCC
DNA 2: TGGTGGCTACGACGGGATT
B12: UAUGUAA (DNA:RNA)
RNA: B1 RNA with G25U, C26A, G27U, G30A, C31A
DNA 1: CAATCTGAATTCCGGTCTCCC
DNA 2: TGGTGGCTACGACGGGATT
B13: UCAAAUA (DNA:RNA)
RNA: B11 RNA with C25U, G26C, U28A, G29A
DNA 1: CAATCTGAATTCCGGTCTCCC
DNA 2: TGGTGGCTACGACGGGATT
B14: CAAAUCU (DNA:RNA)
RNA: B11 RNA with G26A, U28A, G29U, U30C, A31U
DNA 1: CAATCTGAATTCCGGTCTCCC
DNA 2: TGGTGGCTACGACGGGATT
B15: AUUCGGU (DNA:RNA)
RNA: B11 RNA with C25A, G26U, A27U, U28C, U30G, A31U
DNA 1: CAATCTGAATTCCGGTCTCCC
DNA 2: TGGTGGCTACGACGGGATT
B16: UCAGGCA (DNA:RNA)
RNA: B11 RNA with C25U, G26C, U28G, U30C
DNA 1: CAATCTGAATTCCGGTCTCCC
DNA 2: TGGTGGCTACGACGGGATT
B17: AGAUGCA (DNA:RNA)
RNA: B11 RNA with C25A, U30C
DNA 1: CAATCTGAATTCCGGTCTCCC
DNA 2: TGGTGGCTACGACGGGATT
B18: UCGGAUG (DNA:RNA)
RNA: B1 RNA with G25U, U29A, G30U, C31G
DNA 1: CAATCTGAATTCCGGTCTCCC
DNA 2: TGGTGGCTACGACGGGATT
B19: ACACAAA (DNA:RNA)
RNA: B11 RNA with C25A, G26C, U28C, G29A, U30A
DNA 1: CAATCTGAATTCCGGTCTCCC
DNA 2: TGGTGGCTACGACGGGATT
B20: CAAGACG (DNA:RNA)
RNA: B11 RNA with G26A, U28G, G29A, U30C, A31G
DNA 1: CAATCTGAATTCCGGTCTCCC
DNA 2: TGGTGGCTACGACGGGATT

The target of this assay is T1, RBFOX1 RRM. The assay can be described thus: EMSA; HiTS-Eq, 1 nM pool, 10 min; buffer printed only for the single-RNA assays: 10 mM Tris pH 7.5, 150 mM NaCl, 3.4 mM EDTA, 0.001% NP-40, 30 C. The settings on record: tags: His6 N-terminal (pET28a); label: 5' 32P. Put shortly: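 A pool of RNA with 7 randomized nucleotides, 5′-radiolabelled and with DNA-annealed flanks, was equilibrated at 1 nM for 10 min in 50 µL with purified RbFox RRM, wild type or mutant, across increasing protein concentrations. Free RNA was separated by 8% native PAGE, excised, reverse-transcribed, barcoded by PCR and sequenced. Relative association constants were obtained from read-count changes of each RNA species versus the control reaction and normalised to the cognate motif.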
As for B1, the binding signal is 0.0236 KA relative to UGCAUGU.

Take B2: the binding signal was 0.00296 KA relative to UGCAUGU.

On to B3, for which the binding signal was 0.0103 KA relative to UGCAUGU.

B4: the binding signal was 0.0058 KA relative to UGCAUGU.

B5: the binding signal was 0.00831 KA relative to UGCAUGU.

Turning to B6, the binding signal was 0.0102 KA relative to UGCAUGU.

Regarding B7, the binding signal is 0.007 KA relative to UGCAUGU.

On to B8, for which the binding signal was 0.00845 KA relative to UGCAUGU.

In the case of B9, the binding signal was 0.00515 KA relative to UGCAUGU.

Take B10: the binding signal was 0.022 KA relative to UGCAUGU.

Turning to B11, the binding signal is 0.00582 KA relative to UGCAUGU.

On to B12, for which the binding signal was 0.0122 KA relative to UGCAUGU.

As to B13, the binding signal was 0.0028 KA relative to UGCAUGU.

B14: the binding signal is 0.00044 KA relative to UGCAUGU.

For B15, the binding signal was 0.00855 KA relative to UGCAUGU.

On to B16, for which the binding signal is 0.0133 KA relative to UGCAUGU.

B17: the binding signal is 0.0164 KA relative to UGCAUGU.

Take B18: the binding signal was 0.0118 KA relative to UGCAUGU.

For B19, the binding signal is 0.000724 KA relative to UGCAUGU.

On to B20, for which the binding signal was 0.00393 KA relative to UGCAUGU.

Values taken from PMC9911399, “Two distinct binding modes provide the RNA-binding protein RbFox with extraordinary sequence specificity”.
